Results on 78 compounds are retold here after article PMC12040169 (PLOS Biology, 2025).

Each structure is given as a SMILES string. Some of the results follow.

This assay relates to T1, C. trachomatis L2/434/Bu expressing GFP (CTL2-GFP).
T1 construct: L2/434/Bu GFP intracellular growth in HeLa cells
On the set-up: species or system HeLa; C. trachomatis total inclusion area by high-content imaging, normalised to DMSO. The conditions noted are these: total inclusion area; 28.5 h, 10 µM; inhibitor. In short, it runs like this:
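Following bulk GFP and resorufin fluorescence reads, infected cells were fixed, Hoechst-stained and imaged on a high-content platform. Inclusion total area and number per well served as growth proxies; nuclei counts indicated host viability. MICs were derived as for the fluorescence assay.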
On to `Cc1nc(C2CCCN(C(=O)c3ccncc3)C2)c2sccn12` (stereo not drawn) [CBK285199], for which the “% of control remaining” value turned out to be 103.297.

Take `O=C(CN1CCC(c2nc3ccccc3[nH]2)CC1)Nc1ccc(F)cc1` [CBK287720]: the “% of control remaining” value is recorded as 89.5091. Regarding `O=[N+]([O-])c1ccccc1NCCNS(=O)(=O)c1ccccc1` [CBK263552], the “% of control remaining” value was 94.3036. For `COCCNc1nc(-c2cccc(F)c2)cn2ccnc12` [CBK066465], the “% of control remaining” value was found to be 153.401. In the case of `COc1ccccc1-c1cnc2[nH]c(=O)n(CC3CCOCC3)c2n1` [CBK064286] it was 81.8262; in that of `Cc1ccc([N+](=O)[O-])cc1NC(=O)C1Cc2ccccc2CN1C(=O)OCc1ccccc1` (stereo not drawn) [CBK262463], 65.4149. For the compound `COc1cnc(-c2ccccc2OC)c(NC(C)=O)n1` [CBK145259], the “% of control remaining” value came out at 94.3033. As to `CN(C)C(=O)N1CCN(C(=O)c2cn(Cc3cccc(S(C)(=O)=O)c3)nn2)CC1` [CBK160969T], the “% of control remaining” value came out at 84.3576. With `O=C(CN1CCN(c2cc(-c3ccsc3)ncn2)CC1)N1CCCC1` [CBK091074], the “% of control remaining” value is 117.287. As to `Cn1c(CCNC(=O)C2CCCCC2)nc2cc([N+](=O)[O-])ccc21` [CBK268440], the “% of control remaining” value worked out at 97.9303. As to `COc1ccc(-c2cnc(NS(C)(=O)=O)c(C(=O)Nc3cc(C)nn3C)c2)cc1` [CBK076528], the “% of control remaining” value came to 90.2477. `CC(C)[C@@H](CO)Nc1nc(-c2ccccc2Cl)cn2ccnc12` [CBK037368]: the “% of control remaining” value was 101.071. `COc1ccc(C(=O)N[C@H]2C[C@H]3C(=O)Nc4ccccc4C(=O)N3C2)cc1` [CBK289355]: the “% of control remaining” value is on record as 114.274. With `Nc1ccc(-c2nc3cc(C(=O)c4ccc5[nH]c(-c6ccc(N)cc6)nc5c4)ccc3[nH]2)cc1` [CBK262848] the figure was 82.7709. With `O=S(=O)(NC1CCN(Cc2ccccc2)CC1)c1ccc(-c2ccon2)s1` [CBK062038] the figure was 95.3253; with `O=C(CSc1nnc(-c2ccncc2)[nH]1)c1ccc(O)c(O)c1` [CBK264346], 109.19; with `O=C(O)c1ccc2c(c1)C(=O)N(c1cccnc1)C2=O` [CBK287173], 104.797. On to `O=C(Nc1ccc(OC(F)(F)F)cc1)Nc1cc(-c2cccs2)n[nH]1` [CBK020563], for which the “% of control remaining” value is reported as 9.722.

With `CCOc1cc(NC2CCN(C(=O)C3CCCCC3(C)C)CC2)ncn1` (stereo not drawn) [CBK305505], the “% of control remaining” value came out at 32.8131.

As to `Cc1cc(-c2cn3cc(C(=O)N4CCCCC4)nc3c(=O)n2C)c(C)o1` [CBK306890], the “% of control remaining” value was determined as 50.8918.

Consider `COc1ccc(NC(=O)C(C)Sc2nc(N)cc(O)n2)cc1` (stereo not drawn) [CBK265699], for which the “% of control remaining” value is recorded as 82.8747. Take `COc1ccc(C(=O)N2CCC3(CCCN(CCN4C(=O)c5ccccc5C4=O)C3)C2)cc1OC` (stereo not drawn) [CBK132862]: the “% of control remaining” value came to 51.5437.

For `Cc1[nH]c(=O)[nH]c(=O)c1CC(=O)NCC1CCN(c2ccccc2F)C1` (stereo not drawn) [CBK304325], the “% of control remaining” value amounted to 30.7799. As for `COc1ccccc1CC(C)NC(=O)CC1CCN(c2nc(C)cc(C)n2)CC1` (stereo not drawn) [CBK285956], the “% of control remaining” value is reported as 128.126. As for `Cc1sc(NC(=S)NC(=O)COc2ccc(Br)cc2Cl)c(C(N)=O)c1C` [CBK266127], the “% of control remaining” value came out at 120.709.

Regarding `O=c1cc(CO)oc(CN2CCCCCC2)c1O` [CBK288363], the “% of control remaining” value was determined as 85.4686.

Take `O=C(N[C@H]1C[C@@H]2C(=O)N[C@H]3CCN(C(=O)Cc4cccs4)[C@@H]3C(=O)N2C1)C1CCC1` [CBK289269]: the “% of control remaining” value was found to be 90.497.

For `C[N+](C)(C)CCC(=O)CCC(=O)O` [CBK262012I], the “% of control remaining” value is 111.339. As to `Cc1c(C(=O)N(C)Cc2csc(Br)c2)nnn1C1CCNCC1` [CBK304491], the “% of control remaining” value is on record as 104.841. As to `O=C(CS(=O)(=O)c1ccccc1)N1CCN2C(=O)N(C3CCCCC3)C(=O)[C@H]2C1` [CBK289580], the “% of control remaining” value was determined as 88.0592. Turning to `NS(=O)(=O)c1ccc(NC(=O)CC2SC(=O)NC2=O)cc1` (stereo not drawn) [CBK263855], the “% of control remaining” value stood at 74.245. As to `CCCC/C=C/c1cnc2[nH]c(=O)n(Cc3cccs3)c2n1` [CBK064373], the “% of control remaining” value was 113.925. With `COc1nccnc1N1CCN(CCOc2ccccc2)CC1` [CBK084230] the figure was 85.5767; with `O=C(N/N=C/c1cccnc1)c1cccc(F)c1` [CBK261689], 95.0695.

`Nc1nc(SCC(=O)NCc2ccc3c(c2)OCO3)n[nH]1` [CBK266580]: the “% of control remaining” value came out at 114.234. For `CN(C)C(=O)c1ccc(-c2ccc(COC3CCN(C(=O)Cc4ccc(F)cc4)CC3)c(S(C)(=O)=O)c2)cc1` [CBK155963], the “% of control remaining” value is reported as 56.2883. On to `COc1nccnc1OC1CCN(Cc2ccc(Cl)cc2)CC1` [CBK084240], for which the “% of control remaining” value came out at 85.4721. In the case of `c1cncc(COc2cc(N3CCCC3)ncn2)c1` [CBK115894] it was 116.251; in that of `OCC1CCCN1c1cncc(-c2ccc(F)cc2F)n1` (stereo not drawn) [CBK065891], 96.891; in that of `CCCOC(=O)c1c(NC(=O)c2cc(-c3ccccc3)nc3ccccc23)sc2c1CCC(C)C2` (stereo not drawn) [CBK262647], 104.601.

As to `CCN1C(=O)N(CC)C2C1NC(=O)N2CCCC(=O)O` (stereo not drawn) [CBK287131], the “% of control remaining” value is listed as 107.092. As for `O=C(c1ccco1)N1CCN(c2ccc(-c3cccc(Cl)c3Cl)cn2)CC1` [CBK037737], the “% of control remaining” value stood at 97.8459.

As to `COc1ccc(OC)c(N(CC(=O)N2CCN(C)CC2)S(=O)(=O)c2ccccc2)c1` [CBK264131], the “% of control remaining” value is 121.887. For `O=C(NC1CC1)C1(Cc2ccccc2-c2cccnc2)CCOCC1` [CBK285222], the “% of control remaining” value came to 79.07. With `CCN1CCCC1CNS(=O)(=O)c1cc(C(N)=O)ccc1OC` (stereo not drawn) [CBK267815] the figure was 91.8933; with `CCOc1ccc(CNc2ccc(N3CCOCC3)c(C(=O)O)c2)cc1OC` [CBK269192], 101.929; with `COc1ccc2[nH]c(=O)c(CNc3ccc4c(c3)-c3ccccc3S(=O)(=O)N4)cc2c1` [CBK286409], 104.438. Take `O=C(c1cccc(-c2nnc(-c3ccccc3)o2)c1)N1CCN(C(=O)c2ccco2)CC1` [CBK269809]: the “% of control remaining” value was determined as 108.644. As to `CCCc1cc(C(=O)NC2CCN(Cc3cccc(F)c3)CC2)[nH]n1` [CBK282465], the “% of control remaining” value amounted to 94.5714. Consider `CS(=O)(=O)N(CC(=O)Nc1ccccc1C(=O)N1CCOCC1)c1ccc(F)c(Cl)c1` [CBK267931], for which the “% of control remaining” value was found to be 103.198.

Consider `c1ccc2nc(N3CCCC3)c(OC3CCOC3)nc2c1` (stereo not drawn) [CBK115769], for which the “% of control remaining” value came to 105.388. With `O=C(c1ccccc1)c1cccc(OCCOc2nccnc2N2CCNCC2)c1` [CBK014250G], the “% of control remaining” value turned out to be 75.1914. Consider `COc1cccc(/C=C(/C#N)c2ccc(Cl)cc2)c1OCc1cccc(C(=O)O)c1` [CBK266721], for which the “% of control remaining” value was 118.545. Regarding `COc1ccc(C(=O)N2CCC3(CCCN(CCc4c[nH]c5ccccc45)C3)C2)cc1OC` (stereo not drawn) [CBK137143], the “% of control remaining” value is 74.6321.

With `O=C(CCCc1ccccc1)Nc1ccccc1C(=O)O` [CBK265516], the “% of control remaining” value was found to be 111.336. In the case of `O=C(C1CN(Cc2nc3ccsc3c(=O)[nH]2)c2ccccc2O1)N1CCOCC1` (stereo not drawn) [CBK295189], the “% of control remaining” value was 100.952.

`COc1ccccc1-c1ccc(CC2(C(=O)NCCc3ccc(F)cc3)CCOCC2)cc1` [CBK286520]: the “% of control remaining” value was 67.8955.

As for `CC(c1ccccc1)c1nc2cnccn2c1NC(C)(C)C` (stereo not drawn) [CBK283533], the “% of control remaining” value amounted to 93.0563.

Turning to `O=C(CCNCCc1c[nH]c(=O)[nH]c1=O)Nc1cccc(Cl)c1` [CBK306889], the “% of control remaining” value is reported as 62.6902. Take `O=C(c1ccccn1)N1CCN(CCc2ccccc2)CC1` [CBK200201]: the “% of control remaining” value is on record as 106.317.

Regarding `COc1ccccc1N(CC(=O)NC(C(C)C)C(C)C)S(=O)(=O)c1ccccc1` [CBK101384], the “% of control remaining” value was determined as 86.3127.

Turning to `CC(=O)Nc1ccc(-c2cncc(NC(C)CCCC(C)(C)O)n2)cc1` (stereo not drawn) [CBK065894], the “% of control remaining” value worked out at 105.954. For the compound `O=C(CCN1C(=O)/C(=C/c2ccc(F)cc2)SC1=S)NNC(=O)c1ccncc1` [CBK262821], the “% of control remaining” value is listed as 101.336. Regarding `Cc1cc(Br)ccc1NC(=O)c1cnc2sccn2c1=O` [CBK246520], the “% of control remaining” value turned out to be 96.8615.

`COc1ccc(C2CC(Cn3cc(C(C)=O)c(=O)[nH]c3=O)ON2C)cc1` (stereo not drawn) [CBK019386]: the “% of control remaining” value amounted to 61.2031. For `CCOCC(=O)N(C)C1CCN(c2ncnc3ccccc23)CC1` [CBK306247], the “% of control remaining” value is listed as 44.4946. With `CC[C@H]1CN(C(=O)c2ccnc(Cl)c2)CC[C@H]1CC(=O)O` [CBK289139] the figure was 128.651; with `COc1ccc(CNC(=O)C2CCCN(c3nc4c(-c5ccccc5)csc4c(=O)[nH]3)C2)cc1` (stereo not drawn) [CBK215464], 102.132; with `Cc1nn(CC(=O)NC(C)(C)C)c(=O)c2cc3ccsc3n12` [CBK284082], 81.9845. Consider `O=C(Cc1ccccc1)Nc1ccc2[nH]ncc2c1` [CBK288211], for which the “% of control remaining” value came to 126.77. In the case of `Cc1c(C(=O)O)sc2nc(C=Cc3cc([N+](=O)[O-])ccc3Cl)[nH]c(=O)c12` [CBK295613] it was 114.371; in that of `C[C@@H](c1ccccc1)n1c(=O)[nH]c2ncc(-c3ccco3)nc21` [CBK064168], 127.604.

In the case of `O=C(O)c1cc(S(=O)(=O)Nc2ccc3cc(Br)cnc3n2)c(F)cc1Cl` [CBK073898], the “% of control remaining” value came to 92.7911. With `Nc1cccc2c(OCCO)cccc12` [CBK001976C], the “% of control remaining” value turned out to be 3.862.

With `Cc1ccc(C(=O)N[C@@H]2C[C@H](C)CC[C@H]2C(C)C)cc1C` [CBK085823], the “% of control remaining” value was 85.6023. With `CC1CCc2nc(NC(=O)Cn3cccc(C(=O)Nc4ccc(F)cc4)c3=O)sc2C1` (stereo not drawn) [CBK286063] the figure was 118.519; with `COc1ccc2[nH]c(CN3CCCC(c4nc(C)n[nH]4)C3)c(C)c2c1` (stereo not drawn) [CBK306904], 66.6783.

`Cc1nc(CN2CCC(C(=O)c3ccc(F)cc3)CC2)cs1` [CBK149147]: the “% of control remaining” value is on record as 133.779.
